Reference: PubChem BioAssay AID493208 (National Center for Advancing Translational Sciences (NCATS), 2011)
Out of some 44,000 compounds screened, about 340 (0.77%) were called active. Inconclusive results (about 5%) are left out. Calls come from the whole dose curve; as a rule, active = well fitted inhibition curve with a large enough effect; inconclusive = small, poorly fitted or top-dose-only effect; inactive = flat fitted curve, though single readings scatter. The list shows a part of the results.

experiment: Acumen qHTS Assay for Inhibitors of the mTORC1 Signaling Pathway in MEF (Tsc2-/-, p53-/-) Cells: Sytravon; details: phospho-rpS6 immunofluorescence/PI, 24 h; series mostly up to 38.3 µM; activity change, negative = inhibition: at the top concentration;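 note: plate controls were DMSO for no effect and rapamycin for full effect; nearly all actives have a fitted effect of over 50% in size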
Procedure, shortened: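 Tsc2-/-, p53-/- MEFs (empty-vector stable line) in DMEM + 10% FBS were treated with compounds 24 h at 37 degree Celsius, fixed, and immunostained for phospho-rpS6 (Alexa-488) with propidium iodide counterstain. Laser-scanning cytometry gave % positive cells, normalized against 7.5 nM rapamycin and DMSO.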

Activity change, negative = inhibition, inactive:
O=C(NCc1ccccc1)c1ccc(NC(=O)N2CCSc3ncccc32)cc1 -8.63%, Cc1ccc(C2=NN(CC(=O)NC(C)c3ccccc3)C(=O)CC2)cc1 (stereo not given) -1.36%, COc1ccc(-c2cn3nc(N4CCC(C(=O)NCc5ccc(F)cc5)CC4)sc3n2)cc1 -4.96%, CCOC(=O)c1c(NC(=O)COc2cccc(C)c2C)sc2c1CCCCC2 2.13%, CC(C)c1ccc(Nc2c(-c3ccc(N4CCOCC4)cc3)nc3ncccn23)cc1 12.1%, COc1ccc(NC(=O)C2CCC(CNS(=O)(=O)c3csc(C(N)=O)c3)CC2)cc1 (stereo not given) -10.3%, COc1ccc(-c2onc(C)c2C)cc1S(=O)(=O)Nc1ccc(OC(F)(F)F)cc1 0.328%, CCOC(=O)c1cccc(NC(=O)c2cc(S(=O)(=O)N3CCCC3)cn2C)c1 10.2%, CCOC(=O)CNC(=O)c1cc2c(=O)n(CC)c3ccccc3c2s1 0.987%, CCCOC(=O)c1ccc(NC(=O)Cn2nnc3sc4c(c3c2=O)CCC(C(C)(C)C)C4)cc1 (stereo not given) -3.45%, Cc1ccc(CNC(=O)CSc2ccc(-c3sc(-c4ccccc4)nc3C)nn2)cc1 0.904%, COC(=O)c1cc2sc(C)cc2n1Cc1ccccc1 -8.57%, O=S(=O)(c1ccc(Br)cc1)c1nc(-c2ccco2)oc1SCc1ccccc1F -0.0492%, CC(=O)c1cc(-c2ccc(F)cc2)n(CC(=O)NC2CCCCCC2)c1C 0.795%, CCCOc1ccc(/C=C/C(=O)Nc2sc3c(c2C(=O)OCC)CCC(C)C3)cc1OC (stereo not given) 4.33%, COc1cccc(CNS(=O)(=O)c2c(C)nc3scc(C)n3c2=O)c1 2.38%, COc1ccc(NC(=O)c2ccco2)cc1NC(=O)C(C)Oc1ccc(Cl)cc1Cl (stereo not given) -18.1%, CCOc1ccc(CCNC(=O)CN2C(=O)c3cccnc3Oc3ccc(C)cc32)cc1OCC -0.002%, O=C(Nc1cccc(C(F)(F)F)c1)c1cc2nc(-c3ccccc3)cc(C(F)(F)F)n2n1 -5.05%, CCOc1ccccc1CNC(=O)CCCn1c(=O)c2cccn2c2cccnc21 -5.53%, Clc1ccc(N2CCN(Cc3nnc(-c4ccc5c(c4)OCO5)o3)CC2)cc1 2.35%, COc1ccc(-c2cccc(NS(=O)(=O)c3cccs3)c2)nn1 -4.01%, COc1ccc(NC(=O)C2=C(C)Nc3c(C(=O)Nc4ccc(C)cc4)cnn3C2c2cccc(Cl)c2)cc1 (stereo not given) -6.99%, CCCCN(CC)C(=O)c1c[nH]c2ccc(S(=O)(=O)Nc3cccc(OC)c3)cc2c1=O -17.2%, COc1ccc(NC(=O)CC2Nc3cccc4cccc(c34)NC2=O)cc1 (stereo not given) -11%, Cc1ccc2oc(-c3cccc(NC(=O)c4cccc5c(Br)cccc45)c3)nc2c1 6.39%, O=C(CCCn1c(=O)c2cccn2c2ccccc21)Nc1cccc(Cl)c1 1.31%, Clc1ccccc1CSc1nncn2c1cc1occc12 -4.1%, CC(=O)N1c2ccccc2CC1C(=O)N1CCN(c2cccc(C)c2C)CC1 (stereo not given) 3.72%, Cc1ccc2onc(CC(=O)N3CCN(c4ccccc4F)CC3)c2c1 -0.56%, Cc1oc2ccc(O)c(CN3CCOCC3)c2c1C(=O)Nc1ccc(C(C)C)cc1 -25.9%, COc1ccc(-c2cc(C)no2)cc1S(=O)(=O)N1CCN(c2ccc(C(C)=O)cc2)CC1 4.57%, COc1ccc(C(=O)NCC(c2cccnc2)N2CCN(c3ccccc3F)CC2)cc1OC (stereo not given) -21.8%, CCCc1nn2c(=O)cc(COC(=O)c3ccccc3NC(=O)C3CCCCC3)nc2s1 5.12%, CCC(=O)N1CCc2cc(S(=O)(=O)CCC(=O)NCc3ccccc3Cl)ccc21 -9.06%, COC(=O)c1c(C)sc(-c2c(-c3ccc(F)cc3)[nH]c3[nH]c(=O)[nH]c(=O)c23)c1O -3.91%, Cc1ccc(NC(=O)C2CCN(S(=O)(=O)c3cccs3)CC2)cc1 2.47%, COc1ccc(CCNC(=O)CCc2c(C)nc3c(-c4ccc(F)cc4)c(C)nn3c2C)cc1OC 2.36%, CC1=C(C(=O)OC2CCCCCC2)C(c2ccccc2Cl)CC(=O)N1 (stereo not given) -9.87%, CCc1ccc(NC(=O)CN(c2ccc(C)cc2)S(=O)(=O)c2c(C)nn(C)c2C)cc1 -9%, COCCCNC(=O)N1CCN(c2nnc(C)c3c(C)n(-c4ccc(Cl)cc4)nc23)CC1 11.1%, Cc1ccc(-n2c(SCc3nc(-c4ccc(Cl)cc4)no3)nnc2-c2ccncc2)cc1 -19.9%, CCOc1cccc(CC(=O)N2CCc3c([nH]c4ccccc34)C2c2ccc(OC)cc2)c1OCC (stereo not given) 9.34%, COc1cccc(CNCCCSc2nnnn2C)c1 -5.92%, COc1ccc(-c2c(C)nn3c(C(F)(F)F)cc(C)nc23)cc1OC -15%, Cc1oc2ncn(C)c(=O)c2c1C(=O)N1CCN(c2ccc(Cl)cc2)CC1 4.94%, Cc1ccccc1CN1C(=O)c2ccccc2S(=O)c2ccc(C(=O)NCc3ccccc3)cc21 (stereo not given) 12%, O=C1c2oc3ccccc3c(=O)c2C(c2cccc(O)c2)N1Cc1ccc(F)cc1 (stereo not given) 2.91%, CCOc1ccc(N(CC(=O)Nc2ccc3c(c2)OCO3)S(=O)(=O)c2ccccc2)cc1 13.9%, CC(C)Sc1ncc(Cl)c(C(=O)Nc2c(C(=O)Nc3ccccc3)oc3ccccc23)n1 -1.1%, Cc1ccccc1Nc1c(-c2ccccc2O)nc2sccn12 -21.1%, Cc1nn(C)c2c1c(-c1ccccc1)cc(=O)n2Cc1c(F)cccc1Cl -9.9%, O=C(c1cc(-c2ccc(Cl)cc2)on1)N(Cc1ccc(F)cc1)Cc1ccco1 1.01%, CCc1ccc(NS(=O)(=O)c2ccc3[nH]cc(C(=O)N4CCCCCC4)c(=O)c3c2)cc1 2.29%, O=C1CN(C(=O)c2ccc(S(=O)(=O)N3CCCC3)cc2)C(c2ccc(F)cc2)c2cc(F)ccc2N1 (stereo not given) 5.1%, CCc1cccc(NC(=O)c2sc3nc[nH]c(=O)c3c2C)c1 -2.38%, CCOC(=O)Cc1ccc(NC(=O)N2CCC(CN3CCC(C)CC3)CC2)cc1 0.425%, COc1ccc(N(C(=O)c2ccc(C)cc2)S(=O)(=O)c2ccc(Cl)cc2)cc1 11.6%, CCN(c1ccccc1)S(=O)(=O)c1nnc(NC(=O)C(C)Oc2ccccc2)s1 (stereo not given) 1.1%, COc1cc(C2C(C(=O)Nc3ccc(C)cc3C)=C(C)Nc3nc(SCc4ccccc4)nn32)cc(OC)c1OC (stereo not given) 5.82%, Cc1ccc2oc3c(c(=O)c2c1)C(c1cccc(O)c1)N(CCCN1CCOCC1)C3=O (stereo not given) -4.12%, Cc1ccc(CNC(=O)c2cnn3c(C)c(Cc4c(F)cccc4Cl)c(C)nc23)cc1 4.21%, CCOc1ccc(CCNC(=O)c2ccc(C)c(-n3c(C)nc4cccnc43)c2)cc1OCC -12.1%, CCOc1ccc(C(=O)Nc2cc(-c3ccccc3)no2)cc1 2.4%, Cc1cc(Br)ccc1NC(=O)CN1C(=O)c2cccnc2Sc2ccccc21 -9.78%, COc1ccc(N(Cc2cccs2)C(=O)COc2ccc([N+](=O)[O-])cc2)cc1 -2.81%, CCN(Cc1ccccc1)C(=O)c1cc2ccc3cccnc3c2[nH]1 -5.35%, O=C(CCn1cnc2onc(-c3ccc(F)cc3)c2c1=O)N1CCN(c2cccc(Cl)c2)CC1 -7.25%, O=C(Nc1ccccc1C(F)(F)F)N1CCN(c2ccc3nnc(-c4ccc(F)cc4)n3n2)CC1 -1.97%, CCC(C(=O)NCCCN(CC)CC)n1ncn2c(cc3occc32)c1=O (stereo not given) 1.27%, CCOc1ccc(CNC(=O)C2Cc3cc(S(=O)(=O)N4CCCCCC4)ccc3N2C(C)=O)cc1 (stereo not given) 0.852%, Cc1ccc(NC(=O)Cn2c(-c3nonc3N)nc3ccccc32)cc1Cl -4.36%, CCOc1ccc(OCC)c(NC(=O)C2CCN(c3cnccn3)CC2)c1 1.04%, O=C(Nc1nnc(S(=O)(=O)N2CCOCC2)s1)c1ccc(F)cc1 -0.121%, N#Cc1cccc(NC(=O)c2ccc3c(c2)N(Cc2cccc(Cl)c2)C(=O)c2ccccc2S3(=O)=O)c1 2.34%, O=C(c1ccc(F)cc1F)N1CCC(c2noc(-c3ccc(S(=O)(=O)N4CCCC4)cc3)n2)CC1 5.45%, Cc1ccccc1-c1noc(-c2ccccc2OCC(=O)Nc2ccccc2[N+](=O)[O-])n1 0.632%, CCc1ccc(S(=O)(=O)c2nnn3c2nc(NCc2ccccc2OC)c2cc(Cl)ccc23)cc1 -15.1%, CCc1ccc(NC(=O)CN(Cc2ccccc2)S(=O)(=O)c2ccc3nc(C)sc3c2)cc1 3.97%, Cn1c(=O)oc2cc(S(=O)(=O)Nc3ccc(O)cc3)ccc21 -0.0579%, COc1ccc(C2NC(=O)N(C)C3=C2C(=O)N(c2ccc(C)cc2)C3)cc1 (stereo not given) 2.85%, Cc1ccc2oc(=O)n(CCNC(=O)Nc3ccc(C)c(F)c3)c2c1 -0.734%, Cc1ccc(N2CCN(C(=O)c3noc4c3COc3ccc(C)cc3-4)CC2)c(C)c1 -1.9%, Cc1ccc(CN(C(=O)COc2ccc(Br)cc2)c2ccccn2)o1 -18.7%, COc1ccc(NC(=O)CSc2nc(-c3ccccc3)nc3c2Cc2c(CO)cnc(C)c2O3)cc1Cl 5.08%, COc1ccc(Cl)cc1N(C)C(=O)C(=O)Nc1ccc2nc3n(c(=O)c2c1)CCCCC3 -3.76%, Cc1ccc(C)c(N2CCN(C(=O)C(C)n3c(C)c4cnn(-c5ccccc5)c(=O)c4c3C)CC2)c1 (stereo not given) -5.69%, CC(Nc1ccc(-c2nc(-c3ccccn3)no2)cc1[N+](=O)[O-])c1ccccc1 (stereo not given) -1.55%, Cc1ccc(C)c(Cn2nc(C)n3c(cc4cc(C)ccc43)c2=O)c1 0.517%, COC(=O)c1ccc(OCC2c3cc(OC)c(OC)cc3CCN2C(=O)c2ccccc2F)cc1 (stereo not given) -0.438%, Cc1ccc(CNC(=O)c2c(-c3cccc(Br)c3)noc2C)o1 -18.3%, O=C(CSCc1cnn(-c2ccccc2)c1-n1cccc1)Nc1ccc(F)cc1F -0.373%, CCc1ccc(NC(=O)C(=O)NCC(c2cccnc2)N2CCOCC2)cc1 (stereo not given) -2.34%, COC(=O)c1ccc(Cl)c(NC(=O)C2CCN(S(=O)(=O)Cc3ccccc3)CC2)c1 -5.66%, Cc1cccc(C(=O)Nc2cccc(OCc3cc(=O)n4c(C)csc4n3)c2)c1 4.46%
